Part of at least one peptide drawing is inferred or uncertain, most often the ends. Bridge positions count the residues as written; N and C are the ends. Ends that are not written are not given here.
Test system: healthy evaluators
Assay: Determination of sweetness threshold by human sensory evaluation
Assay type: in vivo
Conditions: for Sweetness fold relative to 1% sucrose: =10000/(sample sweetness threshold); for increase in sweetness achieved by addition of the lipase leader peptide sequence ROLpro: protein prepared with ROLpro versus same protein without ROLpro; for Concentration (μg/mL) corresponding to threshold: sweetness threshold, protein diluted with mineral water (pH 6.9), averaged for 10 individuals
Protocol: Since the recombinant Brazzein of the present disclosure is not a sugar-based compound, it is impossible to measure the sweetness by using a saccharometer. Therefore, the sweetness threshold is measured using human sensory evaluation. For most people, the sweetness threshold for sugar in soft drinks is 0.32%-1.0%. To assess the sweetness threshold for each solution, an 1% sucrose solution is used as the solution with minimum concentration at which sweetness is felt, i.e., the sweetness threshold is 10000 μg/mL The sweetness potency of the Brazzein described herein relative to sucrose is generally in a range of 1:500 to 1:16,000. The samples tested included naturally extracted Brazzein (homemade, about 95% pure), recombinant Brazzein and mutants thereof, sucrose and mineral water. The protein was diluted in a gradient from 0.5 to 20 μg/ml by diluting the dry protein powder with mineral water (pH 6.9). Ten healthy evaluators (five males and five females) aged between 30 and 50 participated in the assessment, five of whom were trained wine tasters. Tasting started at the lowest concentration, with concentration increased by 1 μg/ml each time until sweetness was felt; then based on this concentration, the concentration was reduced by 0.1 μg/ml at a time until sweetness was not felt; and the sweetness threshold of the sample was determined by gradually decreasing the concentration gradient in such a way. 20 ml of samples were tested randomly compared to sugar solutions. Before each analysis, the evaluator was asked to rinse his/her mouth with water and eat the neutral crackers until there was no residual taste. The test solution was held in oral cavity for at least 10 seconds. Thereafter, evaluators provided scores against samples on the basis of their responses between 0 and 10; 0—no sweet feeling, 10—highly sweet. The final results for each protein were averaged for 10 individuals. The sweetness factor of Brazzein and mutants thereof relative to 1% sucrose=10000/(sample sweetness threshold).

Sequence | Sweetness fold relative to 1% sucrose [fold] | increase in sweetness achieved by addition of the lipase leader peptide sequence ROLpro | Concentration (μg/mL) corresponding to threshold [µg/mL]
DKCKKVYENYPVSKCQLANQCNYDCKLDKHARSGDCFYDAKRNLQCICDYCEY (disulfide 3-51, 15-36, 21-46, 25-48) [BXT-D1] | 574.7 | about 11.6 fold | 17.4 ± 3.4
DKCKKVYENYPVSKCQLANQCNYDCKLDKHARSGDCFYDDKRNLQCICDYCEY (disulfide 3-51, 15-36, 21-46, 25-48) [BXT-D2] | 370.4 | about 10 fold | 27.0 ± 4.9
DKCKKVYENYPVSKCQLANQCNYDCKLDKHARSGDCFYDKKRNLQCICDYCEY (disulfide 3-51, 15-36, 21-46, 25-48) [BXT-D3] | 460.8 | about 13.6 fold | 21.7 ± 4.4
DKCKKVYENYPVSKCQLANQCNYDCKLDKHARSGDCFYDRKRNLQCICDYCEY (disulfide 3-51, 15-36, 21-46, 25-48) [BXT-D4] | 694.4 | about 12 fold | 14.4 ± 3.1
DKCKKVYENYPVSKCQLANQCNYDCKLDKHARSGECFYDEKRNLQCICDYCEY (disulfide 3-51, 15-36, 21-46, 25-48) [BXT, Brazzein] | 130.0 | about 4.7 fold | 76.9 ± 14.8
DKCKKVYENYPVSKCQLANQCNYDCKLDKRARSGDCFYDAKRNLQCICDYCEY (disulfide 3-51, 15-36, 21-46, 25-48) [BXT-D5] | 862.1 | about 9.7 fold | 11.6 ± 2.7
